Reference: PMC9127577
Results are given in words; binding and its absence hold for the method and conditions named. In cells and extracts the contact can be indirect. Some binding calls cover weakened binding; strength is not graded here. For some assays here: Sequences can lack the tags named with a protein.

The chains behind the UniProt entries cited, without tags or fusion partners. Where a name states a change or a piece, a line headed by the entry shows the natural chain unless it says otherwise. A line that says so, or that is headed by a name, gives the form on record, which may keep a tag or linker. Residues count along the entry.
UniProt Q9Y294: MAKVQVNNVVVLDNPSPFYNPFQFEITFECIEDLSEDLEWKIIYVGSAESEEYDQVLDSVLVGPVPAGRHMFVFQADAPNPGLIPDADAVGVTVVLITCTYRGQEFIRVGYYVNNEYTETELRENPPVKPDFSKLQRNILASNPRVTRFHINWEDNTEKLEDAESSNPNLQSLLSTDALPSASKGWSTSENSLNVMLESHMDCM
SFB-tagged ASF1A N-terminal part (residues 1–154): residues 1-154 of Q9Y294
ASF1A Δ91 to 120 (Q9Y294, form named): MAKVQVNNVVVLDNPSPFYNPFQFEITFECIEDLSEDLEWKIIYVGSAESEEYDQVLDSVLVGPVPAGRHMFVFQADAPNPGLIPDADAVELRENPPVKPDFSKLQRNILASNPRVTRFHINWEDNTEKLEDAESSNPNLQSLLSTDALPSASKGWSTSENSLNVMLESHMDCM
UniProt Q9NVP2: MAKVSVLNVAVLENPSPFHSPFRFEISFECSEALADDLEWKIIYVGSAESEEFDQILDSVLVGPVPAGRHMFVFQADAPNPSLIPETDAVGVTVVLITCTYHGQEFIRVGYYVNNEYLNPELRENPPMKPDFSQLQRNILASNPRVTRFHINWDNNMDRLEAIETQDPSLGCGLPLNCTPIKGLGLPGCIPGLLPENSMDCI
UniProt P49959: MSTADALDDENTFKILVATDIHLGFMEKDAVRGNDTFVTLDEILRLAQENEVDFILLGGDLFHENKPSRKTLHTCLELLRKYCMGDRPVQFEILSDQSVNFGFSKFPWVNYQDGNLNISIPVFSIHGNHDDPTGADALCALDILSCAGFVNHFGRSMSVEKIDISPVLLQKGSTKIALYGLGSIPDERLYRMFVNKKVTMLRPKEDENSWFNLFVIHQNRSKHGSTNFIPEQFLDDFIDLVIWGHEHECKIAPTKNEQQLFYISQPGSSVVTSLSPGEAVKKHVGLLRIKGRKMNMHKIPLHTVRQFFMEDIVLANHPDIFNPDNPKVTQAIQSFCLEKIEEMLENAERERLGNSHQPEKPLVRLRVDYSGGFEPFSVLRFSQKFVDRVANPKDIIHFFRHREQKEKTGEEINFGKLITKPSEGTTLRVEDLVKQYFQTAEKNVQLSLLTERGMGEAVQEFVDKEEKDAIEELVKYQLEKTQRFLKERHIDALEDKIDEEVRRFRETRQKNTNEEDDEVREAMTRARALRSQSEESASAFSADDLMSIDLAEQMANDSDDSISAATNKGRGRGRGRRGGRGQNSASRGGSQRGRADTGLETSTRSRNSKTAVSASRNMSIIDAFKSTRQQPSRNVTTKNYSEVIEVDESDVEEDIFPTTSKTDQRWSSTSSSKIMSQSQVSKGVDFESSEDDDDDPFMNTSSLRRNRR

How the values were obtained:
[1] = target: SFB-tagged endogenous RIF1 (replication timing regulatory factor 1), N-terminal knock-in (human) (UniProt Q5UIP0); test: pull-down; lysate of 293T RIF1 SFB N-terminal knock-in cells (NETN buffer with turbonuclease) pulled down with S protein-conjugated beads, 4 °C; Western blot
[2] = target: T1, SFB-tagged RIF1 truncation mutant, residues 967–1690 (human) (UniProt Q5UIP0); test: pull-down; 293T cells transfected with SFB-tagged constructs, lysed in NETN buffer with turbonuclease; pull-down with streptavidin-conjugated beads, 4 °C; Western blot of the endogenous partner (called coimmunoprecipitation in the text)
T1 sequence: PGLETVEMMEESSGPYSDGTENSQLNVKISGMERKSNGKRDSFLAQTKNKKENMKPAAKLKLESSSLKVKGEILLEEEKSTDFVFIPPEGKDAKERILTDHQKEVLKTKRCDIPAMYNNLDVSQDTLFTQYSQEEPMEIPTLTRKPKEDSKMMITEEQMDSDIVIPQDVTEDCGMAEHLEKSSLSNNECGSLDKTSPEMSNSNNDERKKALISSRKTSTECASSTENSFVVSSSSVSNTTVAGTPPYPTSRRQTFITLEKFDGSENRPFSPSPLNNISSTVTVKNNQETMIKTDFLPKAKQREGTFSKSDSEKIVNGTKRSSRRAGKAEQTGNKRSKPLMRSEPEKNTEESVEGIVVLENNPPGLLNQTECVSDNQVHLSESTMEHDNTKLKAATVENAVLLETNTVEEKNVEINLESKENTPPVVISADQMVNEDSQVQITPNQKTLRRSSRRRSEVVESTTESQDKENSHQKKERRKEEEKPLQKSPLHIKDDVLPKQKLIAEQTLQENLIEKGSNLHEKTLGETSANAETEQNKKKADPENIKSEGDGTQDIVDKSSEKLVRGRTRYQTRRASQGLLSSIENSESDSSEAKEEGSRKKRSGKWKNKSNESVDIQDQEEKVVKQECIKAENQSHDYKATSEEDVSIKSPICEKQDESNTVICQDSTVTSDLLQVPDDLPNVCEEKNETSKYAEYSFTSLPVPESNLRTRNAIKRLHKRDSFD

[3] = target: T2, SFB-tagged RIF1 truncation mutant, residues 967–1350 (human) (UniProt Q5UIP0); test: as above
T2 sequence: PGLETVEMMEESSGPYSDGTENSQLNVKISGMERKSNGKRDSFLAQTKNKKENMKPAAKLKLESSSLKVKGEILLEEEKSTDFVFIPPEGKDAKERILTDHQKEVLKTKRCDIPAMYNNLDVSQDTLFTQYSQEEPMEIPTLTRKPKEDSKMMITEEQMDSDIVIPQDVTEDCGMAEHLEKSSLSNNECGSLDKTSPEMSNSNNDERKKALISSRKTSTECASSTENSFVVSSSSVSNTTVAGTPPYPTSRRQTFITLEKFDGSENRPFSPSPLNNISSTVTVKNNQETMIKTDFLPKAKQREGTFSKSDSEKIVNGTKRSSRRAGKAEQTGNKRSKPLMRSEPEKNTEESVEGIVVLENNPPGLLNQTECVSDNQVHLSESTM

ASF1A Δ91 to 120 (human) = ASF1A Δ91 to 120 (human) (UniProt Q9Y294); test: as above
[4] = target: SFB-tagged ASF1B, full length (human) (UniProt Q9NVP2); test: as above
[5] = target: SFB-tagged ASF1A N-terminal part (residues 1–154) (human) (UniProt Q9Y294); test: as above
[6] = target: SFB-tagged ASF1A, full length (human) (UniProt Q9Y294); test: as above
[7] = target: SFB-tagged ASF1A V94R (histone-binding defective mutant) (human) (UniProt Q9Y294); test: as above
[8] = target: endogenous ASF1B (human (endogenous in 293T)) (UniProt Q9NVP2); test: co-IP; 293T lysate (NETN buffer with turbonuclease) immunoprecipitated with antibodies to endogenous ASF1A or ASF1B overnight, Protein A/G agarose beads, 4 °C; Western blot
[9] = target: endogenous ASF1A (human (endogenous in 293T)) (UniProt Q9Y294); test: as above

Substance | binding [1] | binding [2] | binding [3] | binding (ASF1A Δ91 to 120 (human)) | binding [4] | binding [5] | binding [6] | binding [7] | binding [8] | binding [9]
endogenous ASF1A (from UniProt Q9Y294 1-204) | binds | binds | binds |  |  |  |  |  |  | 
endogenous RIF1 (replication timing regulatory factor 1) (from UniProt Q5UIP0-2 1-2446) |  |  |  | no binding | binds | binds | binds | binds | binds weakly | binds
MRN complex (MRE11–RAD50–NBS1) (from UniProt P49959 1-708; Q92878 1-1312; O60934 1-754) | binds |  |  |  |  |  |  |  |  | 
